Some of the results follow.
What follows are compounds tested on T1, C. trachomatis L2/434/Bu expressing GFP (CTL2-GFP). Conditions: total inclusion area; 28.5 h, 10 µM; inhibitor.
T1 construct: L2/434/Bu GFP intracellular growth in HeLa cells
Parameters: species or system HeLa; C. trachomatis total inclusion area by high-content imaging, normalised to DMSO
How it was run: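 Host cell viability was gauged from Hoechst-stained nuclei counts, while chlamydial growth was taken from total inclusion area and inclusion number per well. Cells were fixed and imaged by high-content microscopy once bulk GFP and resorufin fluorescence had been measured.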

Compound | % of control remaining
CCc1nc(C(C)NCC(=O)Nc2cc(C)nn2C)cs1 (stereo not shown) [CBK305118] | 107.774
Cc1ccc(CNc2cc(C)ccn2)cc1 [CBK005419] | 54.939
CN(C)C(CNc1cncc(-c2cccc(Cl)c2)n1)c1cccnc1 (stereo not shown) [CBK037247] | 67.119
CCc1ccc(C(=O)C(C)OC(=O)c2nc3nc(C)cc(C)n3n2)cc1 (stereo not shown) [CBK305023] | 59.906
Cc1cc(C)nc(N2CCC(CC(=O)NCCOc3cccc(F)c3)CC2)n1 [CBK285996] | 107.357
O=C(Oc1cccc2cccnc12)c1cccc(S(=O)(=O)Oc2cccc3cccnc23)c1 [CBK264545] | 107.058
Cc1ccc(N2CCCN(C(=O)COc3ccccc3F)CC2)nn1 [CBK305261] | 29.3648
Cc1ccc(-n2c(=O)[nH]c3c(C(=O)Nc4ccccc4)cn(C)c3c2=O)cc1 [CBK287651] | 112.015
CCn1c(=O)n(CC(=O)N(C(C)C)C(C)C)c2cccnc21 [CBK283943] | 84.0031
CCN(Cc1ccco1)C(=O)NC1CCCc2c1cnn2CCO (stereo not shown) [CBK305767] | 100.958
O=S(=O)(/C=C/c1ccccc1)Nc1cccc2cc[nH]c12 [CBK155788] | 88.6908
Cc1c(Cl)cccc1S(=O)(=O)Nc1nc(CSc2ccccn2)ns1 [CBK200054] | 81.8465
Cc1nn(C(C)CC(=O)NCCN2CCC(C)CC2)c(C)c1Cl (stereo not shown) [CBK281558] | 91.8694
CC1CC(C)CN(CCCNC(=O)c2cc(-c3cccs3)no2)C1 (stereo not shown) [CBK281949] | 113.145
c1ccc(Cn2cc(-c3nccnc3OCCn3ccnc3)cn2)cc1 [CBK107102] | 77.7155
CC(=O)Nc1cc2ccccc2nc1C1CCN(C(=O)C(C)C)CC1 [CBK285259] | 80.926
CC(C)(CO)CNc1cc(Cl)nc2ccnn12 [CBK037200] | 96.85
COc1cccc(C(=O)Nc2ccc(O)c(C)c2)c1 [CBK264413] | 110.155
COc1ccc(CCNC(=S)NC2CC3CCC2C3)cc1OC (stereo not shown) [CBK015410] | 71.9386
Cc1cc(-c2ccc([N+](=O)[O-])cc2)nc2ccc3ccccc3c12 [CBK263253C] | 62.4051
Cc1[nH]c2ccccc2c1C(=O)CSc1nc2scc(-c3ccco3)c2c(=O)n1-c1ccccc1 [CBK267933] | 114.172
O=C1NC2CCCCC2NC1CC(=O)N1CCN(Cc2ccccc2)CC1 (stereo not shown) [CBK269484] | 84.2892
O=S(=O)(c1ccc(-n2cnc(Cl)c2Cl)cc1)N1CCCN(Cc2ccc3cccc(O)c3n2)CC1 [CBK063088] | 66.3465
CCCCN1CC(C(=O)OCC)=C(O)C1=O [CBK028774] | 55.2687
Cc1ccc(S(N)(=O)=O)cc1C(=O)Nc1nncs1 [CBK050456] | 55.9545
Nc1nccc2c1ncn2[C@H]1C[C@@H](O)[C@@H](CO)O1 [CBK201157] | 106.27

Compound | % of control remaining
Cc1ccc(C(=O)Nc2cccc(-c3ccc4nnc(C)n4n3)c2)cc1 [CBK287683] | 56.1119
Cc1c(NC(=O)Nc2ccc(Cl)cc2)sc(=S)n1C [CBK027495] | 64.8352
Cc1c(C(C)NCCc2nnc[nH]2)cnn1-c1ccc(C#N)cc1 (stereo not shown) [CBK304063] | 39.3385
CC1CCc2c(sc(NC(=O)c3ccncc3)c2C(N)=O)C1 (stereo not shown) [CBK288530] | 108.085
CC1CCc2c(sc3nc(SCC(=O)NC(c4ccccc4)c4ccccc4)nc(N)c23)C1 (stereo not shown) [CBK267274] | 102.045
CCCS(=O)(=O)N1CCC(C(=O)NCc2ccc(Cl)cc2Cl)CC1 [CBK305559] | 37.2718
Cc1cc(C[C@@H]2CCC[C@H]2NCc2nc3ccccc3[nH]2)on1 [CBK284935] | 87.3959
CC(C)(C)C1CCC(OC(=O)CCC(=O)Nc2nccs2)CC1 (stereo not shown) [CBK260890] | 92.1801
Cc1ccc(-c2cnc(SCC(N)=O)n2-c2ccccc2)cc1 [CBK287757] | 105.185
CCN(CC)C1=NC(=S)N(C)C(c2ccc(OC)cc2)S1 (stereo not shown) [CBK006804] | 74.1302
Cc1cc(C)c2[nH]c(C)c(CC(=O)N(C)CCN(C)C)c2c1 [CBK282731] | 105.029
CCN(CC)C(=O)c1sc2ncccc2c1NS(=O)(=O)c1cc(Cl)sc1Cl [CBK050615] | 94.2998
Cc1nc(S(=O)(=O)N2CCC(C(=O)N3CCCC3)CC2)cn1C [CBK305786] | 57.0951
Cc1ccc(N(Cc2cc3cccc(C)c3nc2O)C(=O)c2cccc([N+](=O)[O-])c2)cc1 [CBK265426] | 84.8309
CCCNCCc1ccc(NC(=O)Nc2cc(F)cc3c2OCOC3)cc1 [CBK173887T] | 72.6454
CC(=O)Nc1cccc(C(=O)OCC(=O)N2CCCC2)c1 [CBK306395] | 70.8017
O=C(NCCc1cccs1)C(c1ccccc1)c1ccccc1 [CBK270275] | 109.146
O=C(CC1CCCO1)NS(=O)(=O)c1cccc(-c2nnco2)c1 (stereo not shown) [CBK305267] | 62.9447
COc1ccc(C2C=C(c3ccc(OC)c(OC)c3)Nc3ncnn32)c(OC)c1 (stereo not shown) [CBK293934] | 101.592
CCC(C)NC(=O)C1CCC(=O)N1Cc1ccc(C)cc1 (stereo not shown) [CBK294470] | 117.032
CC(C)(C)OC(=O)N1CC2(C1)N=C1C=C(C(C)(C)C)ON1[C@H]1[C@H](O)[C@H](O)C[C@H]12 [CBK303240] | 63.761
Cc1ccc(S(=O)(=O)NC(C)(C)CSc2nncn2N)cc1 [CBK266297] | 127.055
CCOc1cc(C)ccc1S(=O)(=O)n1nnc2ccccc21 [CBK287796] | 69.1659
CCNC(=O)N1CCN(CCCCN2C(=O)CC3(CCCC3)CC2=O)CC1 [CBK024999C] | 99.2428
COC(=O)CCC(=O)N1CCC2(CCN(Cc3ccccc3)C2)C1 (stereo not shown) [CBK136852] | 90.2453
Cc1ccccc1NC(=O)c1cnc2sccn2c1=O [CBK287447] | 103.316
